Reference: the supplement of paper PMC3334620
The full ranking holds about 33,000 sequences; the median of “E-score (-0.5 to 0.5)” is about -0.043, and the highest 2% start at about 0.37. This is one part of the list.

These sequences were tested against T1, Upc2 (UniProt Q12151) (assay: PBM E-score (8-mer binding enrichment) (E-score (-0.5 to 0.5)); higher = stronger / more preferred TF binding; most listed sequences are background and not binding sites). Settings: protein concentration: 200 nM; construct: GST-full length.
T1 sequence: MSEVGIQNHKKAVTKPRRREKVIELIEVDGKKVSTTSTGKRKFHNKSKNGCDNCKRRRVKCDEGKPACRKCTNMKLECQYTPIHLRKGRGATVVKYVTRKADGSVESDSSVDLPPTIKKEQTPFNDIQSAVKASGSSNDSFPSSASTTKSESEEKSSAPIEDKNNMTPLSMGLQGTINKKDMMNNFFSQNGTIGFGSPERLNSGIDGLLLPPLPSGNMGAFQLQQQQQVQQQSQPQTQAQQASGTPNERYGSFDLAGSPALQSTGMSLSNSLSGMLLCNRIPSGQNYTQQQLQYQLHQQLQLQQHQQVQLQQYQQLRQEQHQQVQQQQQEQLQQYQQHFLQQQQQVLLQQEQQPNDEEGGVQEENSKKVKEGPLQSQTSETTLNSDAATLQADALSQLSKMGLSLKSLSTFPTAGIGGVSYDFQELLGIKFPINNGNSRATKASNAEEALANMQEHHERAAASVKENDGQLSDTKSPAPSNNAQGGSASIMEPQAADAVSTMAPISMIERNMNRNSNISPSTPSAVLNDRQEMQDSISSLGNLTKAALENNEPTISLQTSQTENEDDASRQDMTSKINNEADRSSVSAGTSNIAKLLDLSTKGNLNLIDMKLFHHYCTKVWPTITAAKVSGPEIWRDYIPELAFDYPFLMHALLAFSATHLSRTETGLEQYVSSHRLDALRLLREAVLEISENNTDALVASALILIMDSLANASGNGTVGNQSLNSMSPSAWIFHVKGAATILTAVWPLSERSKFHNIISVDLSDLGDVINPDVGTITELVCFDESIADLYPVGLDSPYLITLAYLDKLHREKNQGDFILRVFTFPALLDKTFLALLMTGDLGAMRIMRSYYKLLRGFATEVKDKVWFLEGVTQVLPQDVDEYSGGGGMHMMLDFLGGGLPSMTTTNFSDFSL
Summary of the method: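 Bound GST-tagged yeast transcription factors, applied at about 100-200 nM to double-stranded universal all-10-mer Agilent arrays, were detected with fluorescent anti-GST. Scans were normalised with masliner. A modified Wilcoxon-Mann-Whitney statistic, the E-score, was assigned to each ungapped eight-base word pooled with its reverse complement by the Universal PBM Analysis Suite.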

Row | Sequence | PBM E-score
1 | GTTGGCTA | -0.217
2 | ACGCGCCC | 0.109
3 | GGGTTACC | 0.0304
4 | CATCTGCC | -0.172
5 | TAATCAGA | -0.123
6 | CATTTCAC | -0.116
7 | CTCCGCAC | -0.109
8 | GCCCTCAC | -0.195
9 | CCCCTCCA | -0.141
10 | AGATTCCC | -0.0511
11 | ACGATGGG | 0.298
12 | CTATAACA | -0.265
13 | CCTGGGGC | -0.165
14 | AACTGCTC | -0.109
15 | CGCTCTCC | -0.138
16 | ACATGAAT | -0.0498
17 | AGCTCCTC | -0.292
18 | CCGTGCCC | -0.208
19 | AAACGAGT | 0.477
20 | AACGATGC | 0.352
21 | AGTTTCAA | -0.0446
22 | CTCAATGC | -0.102
23 | ATGTTGAA | 0.0438
24 | CGACTTGC | -0.106
25 | TACAGCTA | -0.051

Row | Sequence | PBM E-score
26 | CGTGAAAC | 0.0416
27 | ACAATGAT | -0.102
28 | GTGAGGAA | -0.13
29 | ACGCAAAT | -0.15
30 | TCCACGAA | 0.0895
31 | GACATTAA | 0.0124
32 | CCCCACGA | -0.151
33 | CATGAGGA | -0.303
34 | ATATAAAC | 0.187
35 | CGCACGGC | -0.197
36 | AGTCGGCC | -0.081
37 | GGGTTTAA | -0.00107
38 | GTTGCGAA | 0.106
39 | TCGGGCAA | -0.0524
40 | AGACAGCG | -0.214
41 | GTCGGTAA | 0.166
42 | ACATTCAG | -0.204
43 | AGCCAGTA | -0.329
44 | AAATAAAA | 0.0557
45 | TAGATATA | 0.142
46 | GAGGAATC | -0.2
47 | AATACAAC | 0.0217
48 | AATAACCA | -0.0566
49 | CTTACCAC | -0.0651
50 | ATGATTAC | -0.0879

Row | Sequence | PBM E-score
51 | AATTTACA | -0.0205
52 | AGTATACG | 0.455
53 | CCCCTTAC | 0.118
54 | CAATAGCA | -0.282
55 | ACTACGCC | -0.23
56 | ATAACATC | 0.0972
57 | GCTTACGA | 0.421
58 | CGTCTCAA | -0.0634
59 | AAAGAAAA | 0.11
60 | GTAATAGA | 0.0805
61 | ATTCTAAC | -0.125
62 | CCCTCCCA | -0.205
63 | AACAAGTA | -0.0163
64 | AACCTCTG | -0.186
65 | TGGCGCCA | -0.211
66 | ACTGGGTC | -0.239
67 | GGAAAGAA | -0.173
68 | ATGGTATA | 0.152
69 | TGCGCCAA | -0.122
70 | CGGGGTCA | 0.117
71 | CCTGGGAC | -0.25
72 | AGTACGCG | 0.189
73 | GACTCGGC | -0.101
74 | GCGTAATA | 0.0953
75 | TATCCCCA | -0.177

Row | Sequence | PBM E-score
76 | GAATAGTC | 0.017
77 | GTTCAATA | 0.0787
78 | AAGATCCA | -0.168
79 | CTTTCTTA | 0.107
80 | CTTCCGGA | -0.31
81 | GTAAACAA | 0.234
82 | CGCCATCC | -0.14
83 | ATGGGAAA | -0.284
84 | CACTCCAA | -0.115
85 | CAAAAGTC | -0.0795
86 | ATAGCTCC | -0.127
87 | GCTATACA | 0.0981
88 | ACCATAGT | -0.167
89 | GTGTCTTA | -0.0182
90 | GCACCAGA | -0.23
91 | AGCCGCAA | -0.231
92 | CCGCTTTC | -0.0566
93 | ACAATAAT | 0.0963
94 | CGACCTCG | 0.161
95 | TCACGAGA | 0.0145
96 | ACTGAAGC | -0.0751
97 | CACTCCTG | -0.303
98 | GCGTTAGA | 0.00044
99 | AATTAACG | 0.272
100 | ATTACCTC | 0.0878

Row | Sequence | PBM E-score
101 | AACGCGAC | 0.161
102 | ATGCAAAG | -0.0684
103 | GGGCTTCA | -0.206
104 | ATAGTCAG | 0.0208
105 | CAAACGCG | 0.294
106 | ATCTGGTC | -0.246
107 | TGATGCAA | 0.0449
108 | GACAAACA | -0.0624
109 | TGCCGACA | 0.0272
110 | CCATTGTA | 0.0132
111 | TACAAGCA | -0.0261
112 | AATGCACT | -0.0453
113 | ACGTATAT | 0.404
114 | CCCGAAAC | 0.212
115 | ATGATAGC | 0.0555
116 | GAAAGTCA | 0.0886
117 | AAAGCCCA | 0.0158
118 | AAGAATTA | -0.0509
119 | ACCCGGAA | -0.0434
120 | CTGAAGGC | -0.226
121 | GTCTAGAA | -0.0707
122 | TATTTAGA | -0.0346
123 | CATCCCCG | -0.0157
124 | CAAAATTC | 0.151
125 | GGCCTTAC | 0.0457

Row | Sequence | PBM E-score
126 | CGGGCGGA | -0.229
127 | AAAGATAA | 0.0111
128 | CTTATCAC | 0.0559
129 | GGATGCGA | 0.166
130 | AGGAAACT | -0.334
131 | ACCCTATA | 0.0801
132 | ATTCCATC | 0.0445
133 | CTACAGGA | -0.115
134 | AAATGATC | -0.0667
135 | CGGGCTCC | -0.15
136 | CAGGACCG | -0.105
137 | ACGTTTAG | 0.397
138 | GCCAATTA | -0.0632
139 | CGTGTGTC | 0.125
140 | ATGCTTCG | 0.247
141 | ACAGGATC | -0.233
142 | CCCAATTA | -0.178
143 | CCACATGA | -0.277
144 | GAAGTGAC | -0.0192
145 | CGAAGGGC | -0.0288
146 | CTCACGTC | -0.0385
147 | CGGGACTA | -0.294
148 | GAAACGAA | 0.41
149 | AAAATATG | 0.0278
150 | CTAAGTGC | -0.107

Row | Sequence | PBM E-score
151 | CCATAGGG | -0.24
152 | AGATGATC | 0.0391
153 | GTCTGCGA | -0.0756
154 | AGTCGTCG | 0.0489
155 | TGCAAGCA | -0.165
156 | CGTCATTC | -0.0253
157 | ACCAGCTA | -0.0512
158 | ATTATCCC | -0.0232
159 | ATGCGCAA | -0.0585
160 | CGTGAAAG | 0.109
161 | ACTGCCCA | -0.081
162 | GTAGCTAA | 0.0478
163 | CAGGCAGA | -0.159
164 | CTAGCGGC | -0.228
165 | GCCGCGTA | 0.271
166 | AGTAGGCC | -0.00345
167 | AACTGGTC | 0.0299
168 | AGAGGGTG | -0.171
169 | CATGCTCA | -0.172
170 | AGCCTTCG | -0.145
171 | CATGCCTC | -0.0206
172 | CGAGGATA | 0.169
